In the BET-seq Pho4 binding data (Le et al. 2018):
The list shows a part of the results. These are noisy estimates, calculated here from bound and input reads.

What follows are sequences tested against T1, Pho4 (S. cerevisiae) (UniProt P07270) (assay: relative binding free energy (BET-seq); higher = weaker binding). Conditions: reference: library average.
T1 sequence: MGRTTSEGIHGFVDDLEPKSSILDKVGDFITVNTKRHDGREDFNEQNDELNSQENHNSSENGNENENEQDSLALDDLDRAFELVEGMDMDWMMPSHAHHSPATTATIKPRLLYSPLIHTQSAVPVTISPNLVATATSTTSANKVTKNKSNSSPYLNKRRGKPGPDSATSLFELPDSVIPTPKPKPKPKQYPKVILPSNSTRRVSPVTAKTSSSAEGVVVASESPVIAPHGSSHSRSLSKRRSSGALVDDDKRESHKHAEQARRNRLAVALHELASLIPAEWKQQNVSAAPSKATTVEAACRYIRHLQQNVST

| Sequence | relative binding free energy [kJ/mol] |
| --- | --- |
| TTCGGCACGTGGAGGG | -0.544 |
| CTTATCACGTGCGGGT | 0.0418 |
| AGAGACACGTGTTCGG | 0.335 |
| GTGCTCACGTGGATTT | 1.09 |
| ACTGTCACGTGTGCGG | 0.586 |
| GATAGCACGTGCGTGG | -0.293 |
| GGGGTCACGTGAGTTT | 1.55 |
| AGGGTCACGTGAGGTC | 1.34 |
| TTGGACACGTGATTGA | 0.92 |
| AGACACACGTGGGGTT | -0.544 |
| TCAAGCACGTGAAGGG | 1.13 |
| ATTAGCACGTGTCATT | -0.418 |
| TTATACACGTGGTTTG | -0.0418 |
| GAGAGCACGTGGTAGT | -0.46 |
| GAAGTCACGTGAATGG | 1.51 |
| TGAGACACGTGGTGAA | -0.167 |
| TTTTTCACGTGAGCGT | 0.879 |
| GTGCACACGTGGAGTT | 0.126 |
| ATAGGCACGTGGGGCG | -0.795 |
| GTTATCACGTGGTGCT | 0.377 |
| GCGTGCACGTGGTTGA | -0.293 |
| TGTTACACGTGTTGGC | 1 |
| GCGTGCACGTGTGGGG | -0.126 |

| Sequence | relative binding free energy [kJ/mol] |
| --- | --- |
| TTTTGCACGTGGTAGA | 0.0837 |
| ATTGACACGTGTGTTA | -0.293 |
| AGATACACGTGGGATA | 0.209 |
| GTGTCCACGTGTAAGG | 0.0837 |
| TGTGGCACGTGAGGAC | 0.46 |
| AGATTCACGTGTATGA | 0.879 |
| AATGACACGTGGGGTA | -0.711 |
| TTAACCACGTGTAGGT | -0.126 |
| TTCAGCACGTGGGGGC | -1 |
| GAAGGCACGTGGTGAA | -0.418 |
| GTTTTCACGTGGGGGA | 0.711 |
| GGATACACGTGGTGCT | 0.46 |
| GGTGACACGTGGGGTG | -0.335 |
| AGGGACACGTGTGCGG | 0.0837 |
| GGGTGCACGTGCGGTC | 0.377 |
| AACGTCACGTGGAGTA | 0.711 |
| ATGCGCACGTGTGCGT | -0.293 |
| GCGTGCACGTGGCGTG | -0.544 |
| ATGGCCACGTGATCGG | 0.586 |
| TATGTCACGTGTGGTC | 0.628 |
| GCTAACACGTGAGGGG | 0.502 |
| GGTGTCACGTGCTTTT | 0.46 |
| CAAATCACGTGTGGGT | 0.669 |

| Sequence | relative binding free energy [kJ/mol] |
| --- | --- |
| TGGGTCACGTGGTGGA | 0.586 |
| TGGCACACGTGGATGG | 0.335 |
| GGTAACACGTGAAGTG | 0.92 |
| ATGGGCACGTGACAGG | -0.418 |
| TTCGACACGTGAAGGG | 1.13 |
| GATGGCACGTGGTCAT | -0.879 |
| CGTTTCACGTGGAATG | 0.962 |
| GTGTGCACGTGGCGCG | 0.126 |
| GTTAACACGTGTTAGA | 0.586 |
| ATTAGCACGTGGCTAG | -0.502 |
| GTTGTCACGTGAGAAT | 1.63 |
| ATATACACGTGCGTTG | -0.167 |
| TTGGACACGTGTGTAA | 0.418 |
| TTGATCACGTGAGATG | 1.63 |
| GGAATCACGTGTTGGC | 0.669 |
| CTTATCACGTGGTTGC | 0.335 |
| TGGGGCACGTGGTTTT | 0.126 |
| CGTTTCACGTGGAGGA | 1.05 |
| TTTTTCACGTGGCTTC | 0.879 |
| TGTGGCACGTGGTGGG | -0.335 |
| GTCAGCACGTGGTTTA | -0.126 |
| TGTGACACGTGTCTTA | -0.0418 |
| ATGGTCACGTGGGCTT | -0.167 |

| Sequence | relative binding free energy [kJ/mol] |
| --- | --- |
| GGTATCACGTGTATTT | 0.962 |
| GGATGCACGTGGTGCA | -0.586 |
| CTGGTCACGTGGTAGG | 0.126 |
| TCGTCCACGTGTGGGT | 0.377 |
| TTTGTCACGTGGCCTA | 0.167 |
| GTTAACACGTGGAGGC | 0.126 |
| TGGTGCACGTGGTTGC | -0.628 |
| ATGTGCACGTGCTGTT | -0.377 |
| AAGAGCACGTGTTTGA | -0.879 |
| GGGGGCACGTGGGGTC | -0.586 |
| GTGCGCACGTGAGTGG | 0.669 |
| TCAATCACGTGTATGG | 1.05 |
| ATTCGCACGTGGTGGT | -0.167 |
| CATAACACGTGGTGGG | -0.335 |
| TTGGGCACGTGGCGGG | -0.628 |
| TAAATCACGTGAAAGT | 1.34 |
| AGCGACACGTGGGGCG | -0.209 |
| AATGGCACGTGTACGT | 0 |
| TGCAGCACGTGGTTAG | -1.13 |
| GTGGACACGTGGAGTA | 0.209 |
| GGAACCACGTGTGGGG | -0.126 |
| TTGAACACGTGTGGGC | 0.586 |
| TGTTACACGTGCGAAG | 0.837 |

| Sequence | relative binding free energy [kJ/mol] |
| --- | --- |
| TGATGCACGTGTGGTA | -0.418 |
| CGGTTCACGTGGGCTG | 0.628 |
| TGTTACACGTGCAATT | 1.09 |
| AATTTCACGTGGTTGA | 0.628 |
| TTGTACACGTGATGGG | 0.46 |
| TTTGGCACGTGCGGAT | -0.753 |
| ACGTGCACGTGTTTGG | -0.586 |
| GTTGACACGTGGGTGA | -0.377 |
| ATAATCACGTGGAAGT | 0.669 |
| TTCATCACGTGTGTAT | 0.544 |
| TTCGGCACGTGCTTTG | -0.753 |
| GTGTACACGTGTAATA | 0.92 |
| GTATGCACGTGGTGAG | -0.586 |
| TTATGCACGTGGGCGG | -0.418 |
| AAGTGCACGTGTGAAG | -0.377 |
| TTGATCACGTGCGGGG | 0.418 |
| TGGTACACGTGGGGGA | -0.377 |
| GTAAACACGTGGGGTG | -0.628 |
| ATTTACACGTGAGTTG | 1.21 |
| CTGAGCACGTGTGATG | -0.126 |
| TATAGCACGTGCGGAT | -0.502 |
| ATACTCACGTGTTTTG | 0.335 |
| AATGGCACGTGCGTTG | -1.09 |
